Measurements published in a collection of fitness landscapes (doi:10.1126/science.1257360).
The list shows a part of the results.

B1: PhoQ; a variant is named by its letters at X, in order, P23837 (parent)
chain: MKKLLRLFFPLSLRVRFLLATAAVVLVLSLAYGMVALIGYSVSFDKTTFRLLRGESNLFYTLAKWENNKLHVELPENIDKQSPTMTLIYDENGQLLWAQRDVPWLMKMIQPDWLKSNGFHEIEADVNDTSLLLSGDHSIQQQLQEVREDDDDAEMTHSVAVNVYPATSRMPKLTIVVVDTIPVELKSSYMVWSWFIYVLSANLLLVIPLLWVAAWWSLRPIEALAKEVRELEEHNRELLNPATTRELTSLVRNLNRLLKSERERYDKYRTTLTDLTHSLKTPLXXLQXXLRSLRSEKMSVSDAEPVMLEQISRISQQIGYYLHRASMRGGTLLSRELHPVAPLLDNLTSALNKVYQRKGVNISLDISPEISFVGEQNDFVEVMGNVLDNACKYCLEFVEISARQTDEHLYIVVEDDGPGIPLSKREVIFDRGQRVDTLRPGQGVGLAVAREITEQYEGKIVAGESMLGGARMEVIFGRQHSAPKDE

Variants of: B1
Test: enrichment ratio after two sorts for PhoP signalling (ratio (wild type AVST 3.29)); higher = more functional
Conditions: with PhoP (E. coli)

| Variant | enrichment ratio |
| --- | --- |
| ADYA | ≤ 0.25 |
| KGGK | ≤ 0.25 |
| SISW | 10.4 |
| SYHW | ≤ 0.25 |
| PKMM | ≤ 0.25 |
| LFSV | ≤ 0.25 |
| KMIW | ≤ 0.25 |
| DQKG | ≤ 0.25 |
| AMVW | 11.8 |
| NMTI | ≤ 0.25 |
| KNYH | ≤ 0.25 |
| DNPG | ≤ 0.25 |
| TYEE | ≤ 0.25 |
| FWCP | ≤ 0.25 |
| QGRW | ≤ 0.25 |
| VFKH | ≤ 0.25 |
| KCLN | ≤ 0.25 |
| ISVI | ≤ 0.25 |
| DHFT | ≤ 0.25 |
| LPED | ≤ 0.25 |
| WVLN | ≤ 0.25 |
| QFAR | ≤ 0.25 |
| ILES | ≤ 0.25 |
| YLMA | ≤ 0.25 |
| SRDV | ≤ 0.25 |
| DHMS | ≤ 0.25 |

| Variant | enrichment ratio |
| --- | --- |
| DQLN | ≤ 0.25 |
| GTSC | ≤ 0.25 |
| WRYA | ≤ 0.25 |
| AWAA | ≤ 0.25 |
| GQKS | ≤ 0.25 |
| DWVT | ≤ 0.25 |
| EVAS | ≤ 0.25 |
| DTKV | ≤ 0.25 |
| WWRP | ≤ 0.25 |
| NVFT | ≤ 0.25 |
| PVMR | ≤ 0.25 |
| ELDK | ≤ 0.25 |
| SCRY | ≤ 0.25 |
| KKAE | ≤ 0.25 |
| ACVG | 4.01 |
| FMKY | ≤ 0.25 |
| HLFI | ≤ 0.25 |
| WARV | ≤ 0.25 |
| DNAD | ≤ 0.25 |
| GGKG | ≤ 0.25 |
| SLTE | ≤ 0.25 |
| DRSS | ≤ 0.25 |
| PCPM | ≤ 0.25 |
| ELHR | ≤ 0.25 |
| TSVS | 6.07 |
| VFFM | ≤ 0.25 |

| Variant | enrichment ratio |
| --- | --- |
| TTRI | ≤ 0.25 |
| WRGC | 0.523 |
| HPQL | ≤ 0.25 |
| FMCR | ≤ 0.25 |
| KQIW | ≤ 0.25 |
| GDNR | ≤ 0.25 |
| MVNH | ≤ 0.25 |
| VYMM | ≤ 0.25 |
| LVSQ | ≤ 0.25 |
| KRVD | ≤ 0.25 |
| FDKF | ≤ 0.25 |
| FLEM | ≤ 0.25 |
| VEIG | ≤ 0.25 |
| GDHT | ≤ 0.25 |
| MEAT | 17.9 |
| YWNM | ≤ 0.25 |
| TYYS | ≤ 0.25 |
| SGFF | ≤ 0.25 |
| VKKR | ≤ 0.25 |
| WSNG | ≤ 0.25 |
| RPLN | ≤ 0.25 |
| WYWM | ≤ 0.25 |
| WKFT | ≤ 0.25 |
| SPHC | ≤ 0.25 |
| KYAQ | ≤ 0.25 |
| PAIY | ≤ 0.25 |

| Variant | enrichment ratio |
| --- | --- |
| GGGI | 3.01 |
| YVVP | ≤ 0.25 |
| SKES | ≤ 0.25 |
| KNEA | ≤ 0.25 |
| WSYN | ≤ 0.25 |
| VMLV | ≤ 0.25 |
| HQYP | ≤ 0.25 |
| YFHS | ≤ 0.25 |
| ITGD | ≤ 0.25 |
| QRRN | ≤ 0.25 |
| SHLA | 3.56 |
| CYLR | ≤ 0.25 |
| KYVC | ≤ 0.25 |
| IWIG | ≤ 0.25 |
| KYLS | ≤ 0.25 |
| EHMQ | ≤ 0.25 |
| DFGT | ≤ 0.25 |
| CSYF | ≤ 0.25 |
| AQLV | 8.82 |
| GSHY | ≤ 0.25 |
| THQL | 5.81 |
| VCTW | ≤ 0.25 |
| HHGF | ≤ 0.25 |
| QDSC | ≤ 0.25 |
| ERFM | ≤ 0.25 |
| KTAQ | ≤ 0.25 |

| Variant | enrichment ratio |
| --- | --- |
| AAPT | ≤ 0.25 |
| FFTT | ≤ 0.25 |
| LCNY | ≤ 0.25 |
| YQHN | ≤ 0.25 |
| TQYC | 2.01 |
| ETLC | ≤ 0.25 |
| NGKG | ≤ 0.25 |
| EDER | ≤ 0.25 |
| MDEG | ≤ 0.25 |
| RAHN | ≤ 0.25 |
| KMDC | ≤ 0.25 |
| FPDC | ≤ 0.25 |
| AWMA | ≤ 0.25 |
| TNHP | ≤ 0.25 |
| EDPW | ≤ 0.25 |
| QPYY | ≤ 0.25 |
| FIAC | ≤ 0.25 |
| PKLD | ≤ 0.25 |
| RSQF | ≤ 0.25 |
| KQFW | ≤ 0.25 |
| HFTW | ≤ 0.25 |
| TWYK | ≤ 0.25 |
| NFTV | ≤ 0.25 |
| YNAY | ≤ 0.25 |
| WPGE | ≤ 0.25 |
| YTHT | ≤ 0.25 |

| Variant | enrichment ratio |
| --- | --- |
| MEGH | 9.36 |
| AGWW | ≤ 0.25 |
| IVQR | ≤ 0.25 |
| TLED | ≤ 0.25 |
| VMYK | ≤ 0.25 |
| WSDR | ≤ 0.25 |
| IMHH | ≤ 0.25 |
| TREL | ≤ 0.25 |
| EVAD | ≤ 0.25 |
| KCLH | ≤ 0.25 |
| LLHI | ≤ 0.25 |
| LLHC | ≤ 0.25 |
| LSHN | ≤ 0.25 |
| PKFG | ≤ 0.25 |
| YFAY | ≤ 0.25 |
| AYDW | ≤ 0.25 |
| FQWY | ≤ 0.25 |
| NMTN | ≤ 0.25 |
| DECF | ≤ 0.25 |
| VTMR | ≤ 0.25 |
| THQW | ≤ 0.25 |
| HFRP | ≤ 0.25 |
| KRWP | ≤ 0.25 |
